From article PMC6919601, “Identification of Plasmodium dipeptidyl aminopeptidase allosteric inhibitors by high throughput screening” (PLoS ONE, 2019)
Hit rate of the full screen: of about 110,000 compounds, about 230 (0.21%) showed an effect of 50% or more. The list shows a part of the results.

target: DPAP1 (Plasmodium falciparum, UniProt Q8IIJ9); experiment: primary screen, percent inhibition; read by cleavage of a fluorogenic dipeptide substrate; higher = more effect of the substance; parameters: species or system P. falciparum D10 trophozoite lysates; single well
Sequence (Q8IIJ9 whole entry, looked up): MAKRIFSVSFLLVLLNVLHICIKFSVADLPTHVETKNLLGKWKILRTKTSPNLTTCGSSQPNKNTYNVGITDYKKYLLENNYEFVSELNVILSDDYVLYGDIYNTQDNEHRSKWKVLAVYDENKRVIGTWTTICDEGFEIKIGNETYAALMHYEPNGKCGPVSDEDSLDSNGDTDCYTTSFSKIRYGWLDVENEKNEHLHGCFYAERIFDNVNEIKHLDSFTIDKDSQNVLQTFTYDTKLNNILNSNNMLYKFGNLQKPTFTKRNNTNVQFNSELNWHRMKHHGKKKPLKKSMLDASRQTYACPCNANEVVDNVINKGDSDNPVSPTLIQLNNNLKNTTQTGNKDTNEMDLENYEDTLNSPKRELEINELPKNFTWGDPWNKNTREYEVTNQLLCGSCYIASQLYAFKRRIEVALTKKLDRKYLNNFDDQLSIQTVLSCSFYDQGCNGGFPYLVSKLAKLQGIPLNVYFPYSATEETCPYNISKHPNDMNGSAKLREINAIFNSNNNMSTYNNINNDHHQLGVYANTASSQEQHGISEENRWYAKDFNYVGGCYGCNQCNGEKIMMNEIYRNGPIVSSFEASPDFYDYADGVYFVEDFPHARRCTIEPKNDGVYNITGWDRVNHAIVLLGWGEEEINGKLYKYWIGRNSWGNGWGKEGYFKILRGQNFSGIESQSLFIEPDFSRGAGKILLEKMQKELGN
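Note: 30 min substrate incubation versus DMSO and 10 µM JCP410 controls.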

Structure (SMILES)	% Inhibition @ 10 uM [%]
CSCC[C@H](NC(=O)c1ccccc1)C(=O)NCC#N	-0.214
O=C(O)c1cc2nc(-c3ccc(Cl)c(Cl)c3)cc(C(F)(F)F)n2n1	7.59
O=C(Nc1ccc2c(c1)OCCO2)c1ccc(C2SCC(=O)N2CCc2ccccc2)cc1 (centres unmarked)	0.907
O=C(O)c1cccc(CN2C(=O)SC(Nc3cccc(C(=O)O)c3)C2=O)c1 (centres unmarked)	-10.2
O=C(C1CCC(CNc2c(N3CCCC3)c(=O)c2=O)CC1)N1CC=C(c2ccccc2)CC1 (centres unmarked)	-3.96
COc1ccccc1CNS(=O)(=O)c1c(C)nc(O)nc1O	0.992
CCCCNC(=O)C1c2ccccc2C(=O)N(CC(C)C)C1c1cccs1 (centres unmarked)	3.84
CCOC(=O)c1cc(-c2nnc(-c3ccc(Cl)cc3)o2)c(C)nc1C	3.63
COc1cc([N+](=O)[O-])cc2c1NC(c1ccc(Cl)cc1Cl)=NO2	-2.63
COc1cccc(C2C(C#N)=C(N)Oc3[nH]nc(C(C)(C)C)c32)c1 (centres unmarked)	-0.759
Cc1ccsc1CCNC(=O)CCc1nc2cccnc2n1-c1ccccc1	-4.74
CC1CCN(Cc2nc3c(c(=O)n(C)c(=O)n3C)n2CCN2CCOCC2)CC1	0.627
O=C(O)CCC(=O)/N=C1\SC2CS(=O)(=O)CC2N1Cc1ccccc1Cl (centres unmarked)	0.558
COc1ccccc1-c1c(C)nn2c(SCC(=O)NCC(C)c3ccccc3)cc(C)nc12 (centres unmarked)	-1.7
CO/C(O)=C/c1nc2ccccc2nc1O	-5.33
Cc1ccc2[nH]c3c(c2c1)CCCC3NCCCN(C)C (centres unmarked)	-6.7
COc1ccc(/C=C/C(=O)c2c(O)nc(C)c3c2CCCC3)cc1	1.83
COC(=O)C1=CN(C23CC4CC(CC(C4)C2)C3)C=C(C(=O)OC)C1c1cc(OC)c(OC)c(OC)c1	-5.28
O=C(Cn1cnc2c(oc3ccccc32)c1=O)N1CCOCC1	-1.19
C=CCOc1c(Cl)cc(/C=C2/NC(=O)N(c3ccccc3)C2=O)cc1OC	-5.45
Cc1ccc(Cc2nc3ccccc3[nH]2)cc1	-4.18

Structure (SMILES)	% Inhibition @ 10 uM [%]
Cc1cc2c(c(=O)n1Cc1cccnc1)C(c1ccc3c(c1)OCO3)C(C#N)=C(N)O2 (centres unmarked)	-1.38
COc1ccc(OCCCc2c(C)n[nH]c2C)cc1	-1.62
Cc1ccc(OC(C)C(=O)Nc2cccc(C)c2C)cc1 (centres unmarked)	-4.02
CCCCCC(=O)Nc1ccc(N(CC)CC)cc1	1.28
COC(=O)C1C(=O)N(c2ccc(C)cc2)C(c2ccccc2)=NC1=S (centres unmarked)	-5.48
COc1cccc(CNCc2cccnc2)c1OCc1ccccc1	-1.65
CC1(C)OC(=O)C(=Cc2c[nH]c3ccccc23)C(=O)O1	16.1
O=C(NC(Cc1cc(I)c(O)c(I)c1)C(=O)N1CCN(S(=O)(=O)c2ccccc2)CC1)N1CCOCC1 (centres unmarked)	-2.35
CCc1ccc(C2CC(c3ccccc3Cl)n3nnnc3N2)cc1 (centres unmarked)	4.67
Cc1cc(C)c(NC(=O)CC(=O)Nc2c(C)cc(C)cc2C)c(C)c1	-8.12
O=C(NCc1cccs1)c1cc2c(s1)CS(=O)(=O)C2	-10.4
CCOC(=O)c1[nH]c2ccccc2c1NC(=O)c1cc(C)cc(C)c1	0.121
Cc1ccc([C@H]2C(C#N)=C(N)Oc3cc(C)oc(=O)c32)o1	-0.142
COc1cc(/C=N/n2c(C)nnc2C)ccc1O	-3.98
COc1ccc(C2/C(=C(/O)OCc3ccccc3)C(C)=Nc3ncnn32)cc1 (centres unmarked)	6.07
COc1ccccc1OC1OC(CO)C(O)C(O)C1O (centres unmarked)	-5.9
O=C(CCCc1c[nH]c2ccccc12)N1CCN(S(=O)(=O)c2ccc(F)cc2)CC1	-1.46
Cc1ccc(S(=O)(=O)N(CC(=O)Nc2cccc(F)c2)C2CCCCC2)cc1	0.964
COc1ccc(N(CC(=O)Nc2cc(C)ccc2C)S(C)(=O)=O)cc1	-0.796
COc1ccc(N(CC(=O)NC2CCCC2)S(=O)(=O)c2ccccc2)cc1OC	-4.43
Cc1n[nH]c(C)c1S(=O)(=O)N1CCCC(C(=O)NCc2cccs2)C1 (centres unmarked)	0.708

Structure (SMILES)	% Inhibition @ 10 uM [%]
COc1ccc(Br)cc1C1=N/C(=C\C(C)=C\c2ccccc2)C(=O)O1	10.5
CC(C)(C)Nc1nc(NC(C)(C)C)nc(N2CCOCC2)n1	4.22
N#CC1=C(N)Oc2[nH]nc(C34CC5CC(CC(C5)C3)C4)c2C1c1ccc(F)cc1 (centres unmarked)	-8.85
O=C(Nc1ccc([N+](=O)[O-])cc1Br)C1CC1c1ccccc1 (centres unmarked)	2.38
CC12CCC(=O)N1c1ccccc1C(=O)N2c1ccccc1 (centres unmarked)	-4.41
CCCCN1C(=O)c2[nH]nc(-c3ccccc3O)c2C1c1ccc(OCC)c(OC)c1 (centres unmarked)	0.366
O=C(NCC1CCCO1)C1CCC(CNS(=O)(=O)c2cccc3nsnc23)CC1 (centres unmarked)	4.54
O=C(NC1CCCCC1)/C(=C/c1ccccc1)NC(=O)c1ccccc1	10.4
O=C(CCNC(=O)Cn1ccc2ccccc2c1=O)NCCCCN1CCOCC1	7.39
Cc1ccc(-c2nc(-c3ccccc3Cl)no2)cc1	-2.63
NC(=S)N/N=C/c1ccc(-c2cccc(C(=O)O)c2)o1	2.95
O=C1OCCC1C(=O)c1ccccc1 (centres unmarked)	2.38
CC(CCc1ccc(O)cc1)NC1CCCCCCC1 (centres unmarked)	1.29
COc1ccc(C2=NN(C(C)=O)C(c3cc4cccc(C)c4nc3Cl)C2)cc1OC (centres unmarked)	-1.06
Cn1nnc2c(N3CCC4(CC3)OCCO4)nc(Cc3ccc(Cl)cc3Cl)nc21	-1.47
Cc1ccnc(NC(=O)COc2ccccc2)c1	0.583
CC(C)(C)OC(=O)N1CCN(c2ccc(-c3cc(F)cc(N4CCCCC4C(=O)NCC#N)c3)cc2)CC1 (centres unmarked)	-1.41
Cc1ccc(NC2SC(=O)N(Cc3cccc(C(=O)O)c3)C2=O)cc1 (centres unmarked)	-11
COC(=O)c1c(-c2ccccc2)nn(-c2ccccc2)c1C(=O)OC	-5.5
Cc1c2ccc(Cl)cc2s[n+]1C	0.627
